{"source": "the supplement of paper PMC3334620", "note": "Over roughly 33,000 sequences, “E-score (-0.5 to 0.5)” has its median near -0.012; the highest 2% begin near 0.29. The list shows a part of the results."}
{"target": "T1, Ybr033w (UniProt P38073)", "T1 sequence": "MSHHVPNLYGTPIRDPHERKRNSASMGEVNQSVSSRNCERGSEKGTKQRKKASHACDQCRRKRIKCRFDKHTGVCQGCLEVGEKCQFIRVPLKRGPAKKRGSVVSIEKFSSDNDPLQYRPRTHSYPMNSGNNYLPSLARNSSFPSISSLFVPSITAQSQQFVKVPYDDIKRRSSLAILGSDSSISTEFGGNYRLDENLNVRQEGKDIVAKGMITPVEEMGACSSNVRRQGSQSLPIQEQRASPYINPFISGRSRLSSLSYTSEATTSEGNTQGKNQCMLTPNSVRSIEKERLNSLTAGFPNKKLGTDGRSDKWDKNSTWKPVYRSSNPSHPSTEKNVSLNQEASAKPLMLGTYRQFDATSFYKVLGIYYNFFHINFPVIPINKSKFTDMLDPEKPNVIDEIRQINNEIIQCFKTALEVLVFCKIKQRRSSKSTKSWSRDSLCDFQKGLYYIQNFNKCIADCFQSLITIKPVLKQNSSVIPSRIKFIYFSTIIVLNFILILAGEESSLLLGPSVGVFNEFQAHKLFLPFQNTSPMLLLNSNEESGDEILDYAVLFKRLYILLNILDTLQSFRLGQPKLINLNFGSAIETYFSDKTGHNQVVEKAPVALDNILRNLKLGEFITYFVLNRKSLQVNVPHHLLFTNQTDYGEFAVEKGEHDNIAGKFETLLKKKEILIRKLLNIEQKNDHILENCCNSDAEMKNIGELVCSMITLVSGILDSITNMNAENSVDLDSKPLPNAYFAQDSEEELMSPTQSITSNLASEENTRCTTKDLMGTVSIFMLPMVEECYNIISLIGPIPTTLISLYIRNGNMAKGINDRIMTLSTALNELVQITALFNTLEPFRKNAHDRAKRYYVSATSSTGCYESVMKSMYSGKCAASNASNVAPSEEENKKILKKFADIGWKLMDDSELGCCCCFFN", "test": "PBM E-score (8-mer binding enrichment) (E-score (-0.5 to 0.5)); higher = stronger / more preferred TF binding; most listed sequences are background and not binding sites", "conditions": "protein concentration: 200 nM; construct: GST-full length", "how_it_was_run": "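Yeast transcription factors carrying a GST tag, as full-length proteins or DNA-binding domains, were produced by PURExpress in vitro transcription/translation. About 100-200 nM protein was applied to universal all-10-mer Agilent arrays, double-stranded by primer extension on fresh or once-stripped slides. Bound protein was detected with fluorescent anti-GST, and scans were normalised with masliner. The Universal PBM Analysis Suite gave each ungapped eight-base word, pooled with its reverse complement, an E-score, a modified Wilcoxon-Mann-Whitney statistic.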"}
{"sequence": "AAAGTGCG", "PBM E-score": 0.0605}
{"sequence": "TATCTTGA", "PBM E-score": 0.201}
{"sequence": "CAGCAAAG", "PBM E-score": 0.00381}
{"sequence": "ATTGGCAG", "PBM E-score": -0.131}
{"sequence": "ACGCTGCC", "PBM E-score": -0.286}
{"sequence": "AGTCTCTC", "PBM E-score": -0.134}
{"sequence": "GTCTCGAA", "PBM E-score": 0.00956}
{"sequence": "AAACAATA", "PBM E-score": 0.196}
{"sequence": "ACGTGCAA", "PBM E-score": -0.197}
{"sequence": "GTTACGAA", "PBM E-score": 0.0496}
{"sequence": "GAAACCAC", "PBM E-score": -0.0602}
{"sequence": "CAGCCCGC", "PBM E-score": -0.285}
{"sequence": "CAAACACG", "PBM E-score": -0.067}
{"sequence": "GACTAGAC", "PBM E-score": -0.162}
{"sequence": "GCCGTTCC", "PBM E-score": -0.127}
{"sequence": "TGCGCTAA", "PBM E-score": 0.141}
{"sequence": "CAGGGGAC", "PBM E-score": -0.286}
{"sequence": "CGATGGCG", "PBM E-score": -0.127}
{"sequence": "AATCCGGT", "PBM E-score": 0.282}
{"sequence": "TATCTGCA", "PBM E-score": 0.00926}
{"sequence": "ACCTCCCG", "PBM E-score": -0.241}
{"sequence": "AAATTCTT", "PBM E-score": 0.176}
{"sequence": "GGCTCCTA", "PBM E-score": -0.311}
{"sequence": "TACAAGGA", "PBM E-score": 0.0745}
{"sequence": "CTTCACCC", "PBM E-score": 0.0795}
{"sequence": "GGTGCATA", "PBM E-score": 0.0554}
{"sequence": "CTGTAAGC", "PBM E-score": -0.109}
{"sequence": "CAAGATCG", "PBM E-score": -0.0792}
{"sequence": "CTGTGGAA", "PBM E-score": 0.0734}
{"sequence": "CACTGGGC", "PBM E-score": -0.175}
{"sequence": "GCTAATCC", "PBM E-score": 0.101}
{"sequence": "ATGTAATA", "PBM E-score": 0.275}
{"sequence": "GCGGACCA", "PBM E-score": -0.0549}
{"sequence": "TTGAGAAA", "PBM E-score": 0.262}
{"sequence": "CAAGAGCC", "PBM E-score": -0.0471}
{"sequence": "CTTGAACA", "PBM E-score": 0.112}
{"sequence": "AAGCCGGA", "PBM E-score": 0.164}
{"sequence": "AACGTCGC", "PBM E-score": -0.164}
{"sequence": "ACAGCTTG", "PBM E-score": -0.151}
{"sequence": "CTGCCAGA", "PBM E-score": -0.111}
{"sequence": "ACTCCACT", "PBM E-score": 0.0138}
{"sequence": "TAATGCGA", "PBM E-score": 0.122}
{"sequence": "CTTTCACC", "PBM E-score": 0.0436}
{"sequence": "AGTACACC", "PBM E-score": 0.1}
{"sequence": "CGCAGCTA", "PBM E-score": 0.0259}
{"sequence": "ATATACCG", "PBM E-score": 0.139}
{"sequence": "CTGCTGGC", "PBM E-score": -0.345}
{"sequence": "AAATATTT", "PBM E-score": 0.357}
{"sequence": "ACCGTCCG", "PBM E-score": -0.151}
{"sequence": "CCACTCTA", "PBM E-score": 0.0325}
{"sequence": "GACACTCA", "PBM E-score": -0.0414}
{"sequence": "AATTTTCA", "PBM E-score": 0.252}
{"sequence": "GGTAACAC", "PBM E-score": -0.00323}
{"sequence": "GGTCCTGA", "PBM E-score": -0.192}
{"sequence": "CAGTGGTC", "PBM E-score": -0.277}
{"sequence": "CCGGTGCG", "PBM E-score": -0.229}
{"sequence": "CAGTCACG", "PBM E-score": -0.248}
{"sequence": "CCTTATAC", "PBM E-score": -0.034}
{"sequence": "CCTGGTAG", "PBM E-score": -0.161}
{"sequence": "CACACGCA", "PBM E-score": -0.0569}
{"sequence": "CACACCGG", "PBM E-score": -0.178}
{"sequence": "CCTAAGCC", "PBM E-score": -0.229}
{"sequence": "CAAACCAG", "PBM E-score": -0.131}
{"sequence": "CCCGAACC", "PBM E-score": -0.157}
{"sequence": "GGACTACC", "PBM E-score": -0.133}
{"sequence": "ACGCCCAC", "PBM E-score": -0.0937}
{"sequence": "AAGATGTG", "PBM E-score": 0.154}
{"sequence": "GGCGTCTA", "PBM E-score": -0.138}
{"sequence": "TTAGACAA", "PBM E-score": 0.134}
{"sequence": "GGTTGTGA", "PBM E-score": 0.00063}
{"sequence": "AAGAAAAA", "PBM E-score": 0.258}
{"sequence": "ATGACCTG", "PBM E-score": -0.0873}
{"sequence": "GCGCTGAA", "PBM E-score": -0.0684}
{"sequence": "ATTACTGA", "PBM E-score": 0.169}
{"sequence": "CCTCAATA", "PBM E-score": 0.0633}
{"sequence": "CTACTGAG", "PBM E-score": -0.0006}
{"sequence": "TCCAAAGA", "PBM E-score": 0.0237}
{"sequence": "CGTTGCGA", "PBM E-score": -0.155}
{"sequence": "ACGCACCG", "PBM E-score": -0.179}
{"sequence": "GAGTACCA", "PBM E-score": 0.122}
{"sequence": "TATCGTGA", "PBM E-score": -0.0184}
{"sequence": "AAACACCT", "PBM E-score": 0.109}
{"sequence": "AGTTCCAT", "PBM E-score": 0.226}
{"sequence": "AGGTGTAC", "PBM E-score": 0.0056}
{"sequence": "ATGCGGTC", "PBM E-score": 0.0769}
{"sequence": "AATGAGTG", "PBM E-score": 0.174}
